# Hit rate of the full screen: of about 150,000 compounds, about 540 (0.36%) showed an effect of 50% or more. The list shows a part of the results.
# Tested on: Plasmodium falciparum
# Experiment: Primary screen in NF54 nanoGlo assay, in single point, at 2uM, 72h; a lower Z score goes with more inhibition
# Format: functional, Erythrocyte
# Conditions: timepoint 72 hour
SMILES,% Inhibition,Z score
N#CCC(=O)Nc1nc(C2CC2)c(Cc2ccc(F)cc2)s1,-4%,0.42
COc1cccc([C@H](C)NC(=O)c2cnc(-c3cccnc3)nc2O)c1,2%,-0.24
COCCc1noc(CNC(=O)c2cnc(-c3ccc(C)cc3)nc2O)n1,-9%,0.88
CCc1cnc(NC(=O)NCc2csc(NC)n2)s1,35%,-3.91
CC(=O)N[C@H](C(=O)N(C)c1nc(C)cs1)C(C)C,4%,-0.65
Cc1ccc(CCC(=O)N[C@H]2CCc3ccccc32)cc1,1%,-0.11
O=C1N(c2cccc(F)c2)Cc2nn(Cc3ccccc3)c(=O)n21,2%,-0.47
CCn1nc(Cc2c(Cl)cccc2Cl)nc1[C@H](C)NC,-3%,0.59
Cc1nc(CCNC(=O)CCC2=NNC(=O)CC2)sc1Cl,2%,-0.3
CCc1ncc(C(=O)N2C[C@H]3CC[C@@H](C2)N(CC2CCC2)C3=O)cn1,-10%,1.18
Cc1c(C(F)(F)F)nn(C)c1NC(=O)N[C@H]1[C@H](c2ccccc2)C1(C)C,-7%,1.29
Cc1cccc(CN2CCC(N3C(=O)N4CCC[C@@]4(C)C3=O)CC2)c1,-3%,0.56
COc1ccc(-n2nc(Nc3cccc4cccnc34)c(C(C)=O)n2)cc1,6%,-0.69
CN(C(=O)Cn1c(=O)n(C)c2ccccc21)[C@H]1CCS(=O)(=O)C1,-9%,1.54
Cc1ccc(C)c(-c2n[nH]cc2CN(C)[C@@H](C)C(=O)N(C)C)c1,-18%,1.77
CC(C(=O)N1Cc2ccccc2CC1c1ccccc1)C1CCOCC1 (stereo not drawn),-14%,1.73
CN1C[C@@H]2CC[C@H]1CN(C(=O)Nc1cccc3ccccc13)C2,-5%,0.92
O=C(CCN1CCN(c2ccccc2Cl)CC1)NC1CCCC1,-3%,0.4
Cc1c(NC(=O)CN(Cc2cccnc2)Cc2ccsc2)cnn1C,1%,-0.24
Cc1cccc(C(=O)N2CCC[C@]3(CCC(=O)N(C4CCCC4)C3)C2)c1O,0%,-0.07
O=C(Nc1ccnn1CC1CC1)c1sccc1C1CC1,3%,-0.47
O=C(c1cn(-c2ccccn2)c(=O)c2ccccc12)n1ccnc1,-16%,1.94
O=C(c1cc(C(F)F)[nH]n1)N1CCC[C@H]1COc1ccc(F)cc1,0%,-0.04
N#Cc1cnc(NC(CO)CO)c(Cl)c1,31%,-3.5
Cc1ccc(CN2CCN(C(=O)N3CCCC3)[C@H]3CS(=O)(=O)C[C@H]32)o1,-2%,0.47
Cc1nc(CN2CCN(CC(C)C)[C@@H]3CS(=O)(=O)C[C@@H]32)n(C)n1,-9%,1.44
O=c1[nH]cnc2c(N3CCOC4(CCOCC4)CC3)nccc12,-6%,1.22

SMILES,% Inhibition,Z score
C[C@@H](C(=O)Nc1ccc2c(c1)OCCCO2)N1CCC(O)CC1,-6%,0.84
CCCCc1cc(C[C@H]2CNCC[C@H]2CC(=O)N2CCN(c3ccccn3)CC2)no1,-12%,2.27
C[C@](O)(C(=O)N1CC[S+]([O-])CC1)c1ccccc1C(F)(F)F,-1%,0.14
O=C(C[C@H](c1cccs1)c1cn(Cc2ccc(F)cc2)c2ccccc12)NCc1ccccc1,-16%,1.61
CC(C)C(=O)N(Cc1ccccc1OS(=O)(=O)c1ccc(F)cc1)CC1CC1,0%,0.05
O=C(N[C@H](C(=O)O)c1ccccc1)c1cccc(Cl)c1,-6%,0.73
CC1=C(C(=O)N(C)C[C@H]2CCOC2)OCCO1,-12%,1.91
Cc1nn(C)c(C)c1-c1nc2c([nH]1)c(C)nn2-c1ccccc1,-14%,2.62
COc1ccc([C@@H]2Cn3nnc(C(=O)N(C)CCc4ccccn4)c3CO2)cc1,-11%,1.27
Cc1ccc(CC(=O)Nc2cc(C)on2)cn1,-1%,0.23
COCCc1noc([C@H](C)NC(=O)c2ccc[nH]2)n1,-14%,1.82
NS(=O)(=O)N1CCC2CCCCC2C1 (stereo not drawn),-10%,1.26
C[C@H](NC(=O)NOCc1ccccc1)c1ccc2c(c1)CC(=O)N2,27%,-3.04
Cn1ccc([C@@H]2CCCCN2C(=O)Cn2cnc3ccccc3c2=O)n1,-17%,2.34
Cn1ccnc1C(=O)N1CC[C@@H]2CN(Cc3ccccc3)[C@@H]2C1,-4%,0.52
O=C(Cc1ccc(F)cc1)NCc1ccnc(-c2ccsc2)c1,0%,-0.01
O=C(Nc1ccc(OCc2ccccc2)cc1)c1ccc2ccccc2n1,-4%,0.54
CCN=C(NCCC(F)(F)F)NC[C@H](C)c1c(C)noc1C,-3%,0.35
O=C(Nc1ccc(F)c(N2CCS(=O)(=O)CC2)c1)C1=CCCC1,-6%,1.16
CCNC(=O)c1nn(CC2CC2)c2c1CN(Cc1ccccn1)CC2,-4%,0.58
COCCn1cnnc1CN(C)Cc1ccc(C)c2ncccc12,-2%,0.3
N=C(NS(=O)(=O)c1ccc2ccccc2c1)N1CCN(c2ccccc2)CC1,31%,-3.47
CCc1nc(CC(=O)Nc2nnc(-c3ccc(C)s3)[nH]2)cs1,-2%,0.2
CCN(C)C(=O)c1ccc(N2CCC3(CCC(=O)N(C4CC4)C3)CC2)nc1,-12%,1.53
Cc1cc(C)c(C#N)c(N2CC(c3ccncc3)C2)n1,-6%,1.17
Cc1cc(N2CCC(NC(=O)[C@@H]3COc4ccccc4O3)CC2)n[nH]1,10%,-1.34
COc1ccnc(N(C)C[C@H]2CC(=O)N(C)C2)n1,-4%,0.53
